Experimental data: patent US12599649B2, “Bioactive polypeptides for improvements in plant protection, growth and productivity” (priority 2017, dated 2026)

Tested on: soybean
Assay: Soybean yield in Paraguay trials infected with Phakopsora pachyrhizi and Cercospora kikuchii (Example 56)
Format: in vivo

## RHPP: root hair promoting polypeptide derived from Glycine max (GGIRAAPTGNER; Glycine max)
150 mL/Ha
  yield increase vs untreated control: 294.2 kg/Ha
300 mL/Ha
  yield increase vs untreated control: 506.8 kg/Ha
